# Results reported in PubChem BioAssay AID504832 (National Center for Advancing Translational Sciences (NCATS), 2011).
# The whole screen tested about 310,000 compounds, of which about 18,000 (5.8%) were called active. Inconclusive results, whose numbers are uncertain, are shown with a selection of clear calls. Calls come from the whole dose curve; as a rule, active = well fitted inhibition curve with a large enough effect; inconclusive = small, poorly fitted or top-dose-only effect, or another doubt; inactive = no such curve, though single readings can be large or run the other way. No potency is given beside an inconclusive call; the fits are too rough.
# Experiment: Primary qHTS for delayed death inhibitors of the malarial parasite plastid, 48 hour incubation
# Conditions: P. falciparum luciferase growth in erythrocytes; series mostly up to 28.7 µM
# In short: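 Compounds are pin-transferred into medium, infected erythrocytes (2% hematocrit, 0.1% parasitemia final) are added, and plates sit one parasite generation at 37 C in 5% CO2. Detection reagent is then added and luminescence measured.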
# Potency is the fitted concentration of half-maximal effect; tags give direction and shape of the fitted curve.
row,SMILES,Potency
1,Cc1ccc(OCCC(=O)Nc2ccc3c(c2)OCO3)cc1,inactive
2,COc1cc([C@@H]2CC=C(C(=O)O)[C@H](c3ccccc3)N2S(=O)(=O)c2ccc(C)cc2)cc(OC)c1OC,active: 3.29 µM
3,Cc1ccc(NC(=O)Cn2nc(C(=O)Nc3ccc(C)cc3)ccc2=O)cc1,inactive
4,COc1ccc(N2CCN(C(=O)NC(=O)c3ccccc3)CC2)cc1,"inconclusive [inhibitor, partial curve, poor fit]"
5,CC(C)OC(=O)c1ccc(NC(=O)c2ccccc2)cc1,"inconclusive [inhibitor, single point]"
6,CN(C)S(=O)(=O)N1CCC(Oc2ccc(C(=O)NC3CCCCC3)cc2)CC1,"inconclusive [inhibitor, single point]"
7,CN(C)S(=O)(=O)c1ccc(NC(=O)CN2CCN(C(c3ccccc3)c3ccccc3)CC2)cc1,"inconclusive [inhibitor, single point]"
8,OCCNc1nc2ccccc2n1-c1ncnc2sc3c(c12)CCC3,active: 6.57 µM
9,CCC(=O)c1ccc(OCC(=O)OCC(=O)Nc2ccc(C)c(S(=O)(=O)N3CCCCC3)c2)cc1,"inconclusive [inhibitor, single point]"
10,CCc1ccccc1NC(=O)CNC(=O)CSC(=S)N1CCCC1,"inconclusive [inhibitor, single point]"
11,O=C(C=C=Nc1ccccc1)C(=O)N=C=Cc1ccccc1,"inconclusive [inhibitor, single point]"
12,CCOC(=O)C1C(=O)NC(c2ccccc2)=NC1c1ccc(OC)cc1 (centres undefined),"inconclusive [inhibitor, full curve, poor fit]"
13,COc1ccc(C(=O)O)cc1S(=O)(=O)Nc1cc(Cl)ccc1N1CCOCC1,"inconclusive [inhibitor, single point]"
14,COc1ccc(Br)cc1-c1nc2c(c(=O)[nH]c(=O)n2Cc2ccccc2)n1C,inactive
15,COc1ccc(CCNC(=O)c2ccccc2)cc1,inactive
16,COc1ccc(CCNC(=O)CCSCc2ccccc2F)cc1OC,"inconclusive [inhibitor, partial curve, poor fit]"
17,COc1ccccc1C(=O)NCCC(=O)N(C)Cc1ccc(C)o1,"inconclusive [inhibitor, single point]"
18,N#CC(C#N)=CN=c1ccn(Cc2ccc(Cl)cc2Cl)cc1,active: 2.94 µM
19,CCOC(=O)c1c(-c2ccc(OC)cc2)nc2nonc2c1N,"inconclusive [inhibitor, single point]"
20,COC(=O)CCSc1nc(N2CCOCC2)c2c(c1C#N)CC(C)(C)OC2,"inconclusive [inhibitor, single point]"
21,CCN1CCN(C(=O)c2cc3cc(F)ccc3[nH]2)CC1,"inconclusive [inhibitor, single point]"
22,COc1ccc(CCNC(=O)c2cccs2)cc1,"inconclusive [inhibitor, single point]"
23,CS(=O)(=O)Nc1ccc(C2=NN(C(=O)c3cccc(F)c3)C(c3cccs3)C2)cc1 (centres undefined),"inconclusive [inhibitor, partial curve]"

row,SMILES,Potency
1,COc1ccc(-c2cn[nH]c2-c2ccc(OCC(=O)NN)cc2O)cc1OC,"inconclusive [inhibitor, single point]"
2,O=c1ccc(-c2ccc(S(=O)(=O)Nc3ccccc3Cl)o2)n[nH]1,"inconclusive [inhibitor, single point]"
3,O=C(/C(=C/c1ccc(Cl)cc1)c1nc2ccccc2[nH]1)c1ccccc1,active: 2.94 µM
4,CC(=O)c1cccc(NC(=O)C(C)N2CCc3ccccc3C2)c1 (centres undefined),"inconclusive [inhibitor, single point]"
5,Cc1cc(C)cc(OCC(=O)Nc2ccc(S(=O)(=O)Nc3ccccn3)cc2)c1,"inconclusive [inhibitor, partial curve, poor fit]"
6,COc1ccc(NC(=O)CSc2nnc(NC(=O)CN3CCOCC3)s2)cc1,"inconclusive [inhibitor, partial curve, poor fit]"
7,CCOC(=O)C1(Cc2ccccc2)CCN(Cc2nccn2CC)CC1,"inconclusive [inhibitor, single point]"
8,Cc1ccc(N2CC(c3nc4ccccc4n3C)CC2=O)cc1C (centres undefined),"inconclusive [inhibitor, partial curve, poor fit]"
9,Cc1ccc(O)c(Nc2nc(-c3ccccc3)nc3ccccc23)c1,"inconclusive [inhibitor, single point]"
10,O=C(C[n+]1ccc(-c2cc(C(=O)Nc3cccc(C(F)(F)F)c3)c3ccccc3n2)cc1)c1cccc([N+](=O)[O-])c1,"inconclusive [inhibitor, full curve, poor fit]"
11,Cc1ccc(/C=C2\SC(=S)N(Cc3ccccc3)C2=O)o1,"inconclusive [inhibitor, full curve, poor fit]"
12,O=C(Cn1cc([N+](=O)[O-])nc1[N+](=O)[O-])N1CCN(c2ccccc2)CC1,active: 0.738 µM
13,O=C(COC(=O)Cn1cc(C(F)(F)F)ccc1=O)Nc1ccccc1,inactive
14,Cc1cccc(N/N=C/c2ccc(C)s2)c1,"inconclusive [inhibitor, single point]"
15,O=C(O)CCCC(=O)NCCCCc1ccccc1,inactive
16,O=C(c1[nH]ncc1-c1ccccc1)C1CO1 (centres undefined),"inconclusive [inhibitor, partial curve, poor fit]"
17,Cn1c(SCC(=O)N2CCOCC2)nc2c(c1=O)SCC2,inactive
18,CCOc1ccc(CC(=O)NCCS(=O)(=O)N2CCN(c3ccccc3)CC2)cc1,inactive
19,CCN(Cc1nc2ccccc2c(=O)[nH]1)C(=O)c1cccc(OCc2c(C)noc2C)c1,active: 6.57 µM
20,O=C(NC(NC(=S)Nc1ccccc1)C(Cl)(Cl)Cl)c1cccc(Cl)c1 (centres undefined),"inconclusive [inhibitor, partial curve, poor fit]"
21,Nc1nnc(SCC(=O)N2CCc3ccccc32)n1-c1ccccc1,inactive
22,Clc1ccc(-c2nnc(N3CCOCC3)o2)cc1,inactive
23,CN1C[C@H](CO)C=C2c3cccc4[nH]cc(c34)C[C@H]21,"inconclusive [inhibitor, full curve, poor fit]"

row,SMILES,Potency
1,CCCCCOc1ccc(Br)cc1/C(C)=N/NC1=NCCN1,active: 5.22 µM
2,O=C(CCC(=O)N1CCN(c2ccc(F)cc2)CC1)c1ccc(F)cc1,inactive
3,COc1cccc(NC(=O)N(C2CCCCC2)C(C)c2cccs2)c1 (centres undefined),"inconclusive [inhibitor, full curve, poor fit]"
4,COC(=O)c1ccc(N2CCCCC2)c(NS(=O)(=O)c2ccc(C)cc2)c1,"inconclusive [inhibitor, partial curve, poor fit]"
5,COc1ccc(C2c3c(-c4ccccc4O)n[nH]c3C(=O)N2CCc2ccc(OC)c(OC)c2)cc1 (centres undefined),active: 7.38 µM
6,Cc1cccc(-n2c(SCC(=O)Nc3ncc(Cl)cc3Cl)nc3ccccc32)c1,"inconclusive [inhibitor, partial curve, poor fit]"
7,COc1ccc(N2CCN(CCNC(=O)Nc3cc(Cl)ccc3Cl)CC2)cc1,"inconclusive [inhibitor, single point]"
8,CCN(c1cccc(C)c1)S(=O)(=O)c1cc2c3c(c1)CCN3C(=O)CC2,"inconclusive [inhibitor, single point]"
9,Cn1ncc([N+](=O)[O-])c1C(=O)Nc1ccccc1Cl,inactive
10,COc1ccccc1N1CCN(c2nc3c(C)cccn3c(=O)c2C=O)CC1,"inconclusive [inhibitor, single point]"
11,C=CC[C@@H]1/C=C(\C)C[C@H](C)C[C@H](OC)[C@H]2O[C@@](O)(C(=O)C(=O)N3CCCC[C@H]3C(=O)O[C@H](/C(C)=C/[C@@H]3CC[C@@H](O)[C@H](OC)C3)[C@H](C)[C@@H](O)CC1=O)[C@H](C)C[C@@H]2OC,active: 1.69 µM
12,Cc1ccc(-n2nnnc2SCC(=O)NC2CCS(=O)(=O)C2)c(C)c1 (centres undefined),"inconclusive [inhibitor, single point]"
13,O=C(CCN1C(=O)/C(=C\C=C\c2ccccc2)SC1=S)Nc1ccccc1C(=O)O,inactive
14,COc1ccc(-c2nc(CS(=O)CC(=O)NCCCN3CCCC3)c(C)o2)cc1OC (centres undefined),"inconclusive [inhibitor, full curve]"
15,COc1ccc(Nc2nnc(SCc3cc(=O)n4ccsc4n3)s2)cc1,"inconclusive [inhibitor, partial curve, poor fit]"
16,O=C(N/N=C/c1c(Cl)cccc1Cl)c1ccc(F)cc1,inactive
17,COc1ccc(NS(=O)(=O)c2cccc(C(=O)NCC(c3ccco3)N3CCCCC3)c2)cc1 (centres undefined),"inconclusive [inhibitor, partial curve]"
18,COc1ccc(-c2cn[nH]c2-c2ccc(OC)cc2)cc1,inactive
19,Cc1ccccc1COc1ccc(-c2nnn(CC(=O)O)n2)cc1,inactive
20,Cc1ccc2oc(C(=O)NCCCN3CCOCC3)c(C)c2c1,inactive
21,O=S(=O)(Nc1ccc2c3c(cccc13)CC2)c1ccc(F)cc1,inactive
22,S=c1[nH]c(-c2cccs2)cn1-c1ccccc1,"inconclusive [inhibitor, single point]"
23,COc1ccc(NC(=O)CSc2nc3ccccc3c(=O)n2CCC(=O)N2CCCCC2)cc1,"inconclusive [inhibitor, partial curve]"
